From PubChem BioAssay AID686971 (National Center for Advancing Translational Sciences (NCATS), 2013)
In all, about 360,000 compounds went through this assay and about 7,500 (2.1%) were called active. The inconclusive results got no clear call from the source; some entries with a clear call stand among them for comparison. Calls follow the shape of the dose curve; as a rule, active = well fitted cell-killing curve with a large enough effect; inconclusive = small, poorly fitted or top-dose-only effect, or effect the other way, or another doubt; inactive = no such curve, though single readings can be large or run the other way. No potency is given beside an inconclusive call; the fits are too rough.

Test: qHTS for induction of synthetic lethality in tumor cells producing 2HG: qHTS for the HT-1080-IDH1KD cell line;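 as to activity, negative = toxicity: 0% = DMSO wells and -100% = cell-free medium wells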
Details: HT-1080 IDH1 knockdown viability, ATP luminescence, 48 h; activity, negative = toxicity: at 46.1 µM (top of the series) unless noted
How it was run: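 Using the IDH1-knockdown HT-1080 line run in the same batch and compound series as the NT line, viability after 48 h at 37 °C was determined by CellTiter-Glo luminescence and expressed as % activity.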
Potency is read from the fitted curve at half-maximal effect; tags tell the direction and shape of the fitted curve.

| Compound | Potency | activity, negative = toxicity |
| --- | --- | --- |
| CCOC(=O)[C@]12CCC=C1N(Cc1cccc3ccccc13)C(=O)[C@H](CC(=O)NCc1ccc(C)o1)C2 | inconclusive [cytotoxic, single point] |  |
| CN(C)c1ccc(/C=N/NC(=O)CN(c2cccc(Cl)c2)S(C)(=O)=O)cc1Br | inconclusive [cytotoxic, partial curve] |  |
| Cc1cc(C(=O)Nc2sc3c(c2C#N)CCCCC3)cs1 | inconclusive [cytotoxic, single point] |  |
| CN(C)Cc1nc2ccccc2c(=O)n1Cc1nc(-c2cc3ccccc3o2)cs1 |  | inconclusive: -31.9% [cytotoxic] |
| Cc1ccc(C(=O)OC(C(=O)Nc2ccc(Cl)cc2C(F)(F)F)c2ccccc2)cc1 (configuration not stated) | inconclusive [cytotoxic, partial curve] |  |
| OC(COc1ccc(Cl)cc1)CN1CCN(c2cccc(Cl)c2)CC1 (configuration not stated) | inconclusive [cytotoxic, single point] |  |
| O=C1CSC(=S)N1c1ccc(O)cc1 | inconclusive [cytotoxic, single point] |  |
| S=C(SSC(=S)N1CCOCC1)N1CCOCC1 | active: 0.731 µM |  |
| Cc1ccc(S(=O)(=O)CC(c2ccccc2)N2CCCCC2)cc1 (configuration not stated) | inactive |  |
| Cc1cc(C)c(Cn2cnc(-c3ccc([N+](=O)[O-])cc3)c2)c(C)c1 |  | inconclusive: -6.67% [cytotoxic] |
| O=C(NC1CCCCC1)NS(=O)(=O)c1ccc2c(c1)CCC2 | inactive |  |
| CC1(C(=O)NS(=O)(=O)c2cccs2)CCN1C(=O)CC1CC1 (configuration not stated) | inactive |  |
| CN(c1ccccc1)S(=O)(=O)c1ccc(Cl)c(C(=O)Nc2ccc(-c3nc4ccccc4[nH]3)cc2)c1 | inconclusive [cytotoxic, single point] |  |
| CN(C)S(=O)(=O)c1ccc(NC(=O)Cn2nc(-c3ccc4c(c3)OCCO4)ccc2=O)cc1 | inactive |  |
| CCOC(=O)c1ccc(NC(=S)Nc2ccc(Br)cc2N)cc1 | inconclusive [cytotoxic, partial curve] |  |
| Cc1noc(C)c1S(=O)(=O)N(C)C[C@H]1OCCCC[C@H](C)Oc2ccc(NC(=O)CCCN(C)C)cc2C(=O)N([C@H](C)CO)C[C@@H]1C | inactive |  |
| CCOc1ccc(-n2c(-c3ccccc3)c[n+]3c2CCCCC3)cc1 | active: 13 µM |  |
| COc1cccc(C(=O)Nc2c(C(N)=O)oc3ccccc23)c1 | inactive |  |
| COc1cc(NC(=O)C2(C)CCCN2C(=O)C(C)C)cc(OC)c1OC (configuration not stated) | inactive |  |
| CCS/C(N)=N/N=C/c1cc(C)ccc1O | inconclusive [cytotoxic, single point] |  |
| COC(=O)[C@@H]1C[C@@]2(O)[C@@H](O)[C@@H](O)[C@@H](O)C[C@H]2N1CC1CCCCC1 | inactive |  |
| COCCN(Cc1cc2cc(C)ccc2nc1Cl)C(=O)Nc1ccccc1C | inactive |  |
| CCOC(=O)c1ccc(N2C(=O)c3n[nH]c(-c4ccco4)c3C2c2cccc([N+](=O)[O-])c2)cc1 (configuration not stated) | inconclusive [cytotoxic, partial curve, poor fit] |  |
| COc1cc(O)c(C(C)=O)c2c1C=CC(C)(C)O2 | inactive |  |

| Compound | Potency | activity, negative = toxicity |
| --- | --- | --- |
| CCn1cnc2c1c(=O)n(CC(=O)NCC(C)C)c(=O)n2Cc1ccccc1 | inactive |  |
| Cc1ccc2cc(/C=C/C(=O)c3ccco3)c(Cl)nc2c1 | active: 11.6 µM |  |
| CCOC(=O)CN1N=C(/C=C/c2ccc(C)cc2)CCC1=O | inactive |  |
| CCCCCCCCN1C(=O)[C@H](CC(=O)NCCc2ccccc2OC)C[C@@]2(C(=O)OCC)CCCC=C12 | inconclusive [cytotoxic, single point] |  |
| COc1ccccc1C=CC(=O)C=Cc1ccccc1OC | active: 13 µM |  |
| CCN(CC)S(=O)(=O)c1cccc(C(=O)NC(Cc2c[nH]c3ccccc23)c2nnc3n2CCCCC3)c1 (configuration not stated) | inconclusive [cytotoxic, full curve, poor fit] |  |
| CN(C)CCNc1nc2sc3c(c2c(=O)n1-c1ccccc1)CCCCC3 | inconclusive [cytotoxic, single point] |  |
| CCN(CC(=O)NC(C)C)C(=O)Cc1ccc(C)c(C)c1 | inconclusive [rising, partial curve] |  |
| CC(=O)Nc1ccccc1OCC(=O)NCCC1=CCCCC1 | inactive |  |
| COc1ccc(NC(=O)c2cccc3cccnc23)cc1S(N)(=O)=O | inconclusive [cytotoxic, single point] |  |
| CCCC[n+]1ccn(C2=C([O-])c3ccccc3C(=O)/C2=N\S(=O)(=O)c2ccccc2)c1 | active: 15.8 µM |  |
| CCOC(=O)c1c(/N=C/N(C)C)sc(/C=N/Nc2ccccc2)c1-c1ccccc1Cl | inconclusive [cytotoxic, full curve, poor fit] |  |
| OCC1(Cc2ccc(F)cc2)CCCN(CCc2ccccc2)C1 (configuration not stated) | inconclusive [cytotoxic, partial curve, poor fit] |  |
| CCOc1ccc(NS(=O)(=O)c2ccc(C(=O)N3CCN(c4ncccn4)CC3)cc2)cc1 | inconclusive [cytotoxic, full curve, poor fit] |  |
| COc1ccc(CN(C)C(=O)C2CSC3(C)CCC(=O)N23)c(OC)c1 (configuration not stated) | inactive |  |
| O=C(CCc1ccccc1)NC(NC(=S)Nc1ccc(Br)cc1)C(Cl)(Cl)Cl (configuration not stated) | inconclusive [cytotoxic, single point] |  |
| CCC(c1nnnn1Cc1ccccc1)N1CCN(c2ccccc2)CC1 (configuration not stated) | inactive |  |
| Cc1onc(-c2c(F)cccc2Cl)c1C(=O)OCC(=O)c1c[nH]c2ccccc12 | inconclusive [cytotoxic, partial curve] |  |
| Cc1ccccc1OCC(=O)N/N=C/c1ccc([N+](=O)[O-])o1 | inconclusive [cytotoxic, single point] |  |
| CN=c1scc(-c2cc(OC)ccc2OC)n1/N=C/c1c(C)[nH]c2ccccc12 | inconclusive [cytotoxic, partial curve] |  |
| CCCc1nc2ccccc2c(=O)n1/N=C/c1ccccc1O | inconclusive [cytotoxic, partial curve] |  |
| O=C(NCc1ccco1)C1CCCN(c2nnc(-n3cccc3)s2)C1 (configuration not stated) | inconclusive [cytotoxic, full curve] |  |
| Cc1ccc(C(=O)N2CCCC(Nc3ccc(C(C)C)cc3)C2)cn1 (configuration not stated) | inactive |  |
| N#Cc1nc(-c2ccco2)oc1N1CCc2ccccc2C1 | inactive |  |

| Compound | Potency | activity, negative = toxicity |
| --- | --- | --- |
| Cc1ccc(S(=O)(=O)N2CCN(CC(=O)Nc3ccccc3C(=O)NC3CC3)CC2)cc1 | inactive |  |
| COc1ccc2cc1Oc1ccc(cc1)C[C@H]1c3c(cc4c(c3Oc3cc5c(cc3OC)CCN(C)[C@@H]5C2)OCO4)CCN1C | active: 20.6 µM |  |
| O=C(N/N=C/c1cc(Cl)cc(Cl)c1O)c1ccncc1 | active: 3.66 µM |  |
| Cc1ccc2cc(CN(CCN3CCCC3)C(=O)Nc3ccc(F)cc3)c(=O)[nH]c2c1C | inconclusive [cytotoxic, single point] |  |
| C[C@H]1COC(=O)CCCC/C=C\C[C@H](CC(=O)N(CCO)Cc2ccccc2)C(=O)N1 | inactive |  |
| CCCN(CCC)CCCNC(=O)c1ccc2c(Cl)c3c(nc2c1)CCC3 | active: 20.6 µM |  |
| Cc1ccc(-n2c(Cc3ccccc3)n[nH]c2=S)c(C)c1 | inactive |  |
| O=C(CCl)N1c2ccccc2SCC1c1ccccc1 (configuration not stated) | active: 5.8 µM |  |
| CC(C)(C)c1ccc(C(=O)NNC(=O)c2ccccc2Br)cc1 | inconclusive [cytotoxic, single point] |  |
| CCc1nc2c(OCc3ccccc3C(=O)OC)cccn2c1N(C)C(=O)c1cccc(OC)c1 | inactive |  |
| COc1cc(-c2cc3nc(NCc4ccco4)ccn3n2)cc(OC)c1OC | inconclusive [cytotoxic, partial curve] |  |
| COc1ccc(/C=C2\CCc3ccccc3C2=O)cc1CN1CCOCC1 | inconclusive [cytotoxic, partial curve] |  |
| O=C(NC(=S)Nc1cccc(Cl)c1N1CCCCC1)c1ccco1 | inconclusive [cytotoxic, single point] |  |
| Cc1nc2ccccc2n1CCc1nc2c3ccccc3nc(=S)n2[nH]1 | inactive |  |
| Cc1ccc(SCC(=O)Nc2ccc(N3CCN(C)CC3)c(F)c2)c(C)c1 | inconclusive [cytotoxic, single point] |  |
| Cc1ccc(-c2cc(C(=O)N/N=C/c3c[nH]c4ccccc34)[nH]n2)cc1 | active: 2.91 µM |  |
| CCOCCOC(=O)c1[nH]c2c(c1C)C(=O)CC(c1cccs1)C2 (configuration not stated) | active: 0.461 µM |  |
| Oc1c(C(c2ccccc2Cl)N2CCCC2)ccc2cccnc12 (configuration not stated) | inconclusive [cytotoxic, partial curve] |  |
| COc1cc(OC)c(CN2CCCCCCC2)cc1Br | inconclusive [cytotoxic, single point] |  |
| CCCCC[C@@H](C)N1C[C@H](COCc2ccccc2)Oc2cc(N3CC[C@H](O)C3)ccc2S1(=O)=O | inconclusive [cytotoxic, single point] |  |
| Cc1ccc(C(=O)NCC(=O)N2CCC(Cc3ccccc3)CC2)cc1 | inactive |  |
| CCCN(CCC)C(=O)CSc1nc2n[nH]c(C)c2c(=N)n1-c1ccc(OCC)cc1 | inconclusive [cytotoxic, single point] |  |
| O=C(/C=C/c1ccccc1)NC(NC(=S)Nc1cc(Cl)ccc1Cl)C(Cl)(Cl)Cl (configuration not stated) | inconclusive [cytotoxic, single point] |  |
| O=C(Nc1cccc2c1CCCC2)C1CCN(c2nnnn2-c2ccccc2)CC1 | inactive |  |
